# From PMC4336329 (PLoS ONE, 2015)
# Out of some 310,000 compounds screened, about 2,200 (0.71%) showed an effect of 50% or more. Effects have a minus sign here. Some of the results follow.
# Molecular target: human ether-à-go-go-related gene (hERG) potassium channel (human, UniProt Q12809)
# Assay: primary screen, population patch clamp on CHO cells stably expressing hERG
# Sequence of human ether-à-go-go-related gene (hERG) potassium channel (Q12809 whole entry, looked up): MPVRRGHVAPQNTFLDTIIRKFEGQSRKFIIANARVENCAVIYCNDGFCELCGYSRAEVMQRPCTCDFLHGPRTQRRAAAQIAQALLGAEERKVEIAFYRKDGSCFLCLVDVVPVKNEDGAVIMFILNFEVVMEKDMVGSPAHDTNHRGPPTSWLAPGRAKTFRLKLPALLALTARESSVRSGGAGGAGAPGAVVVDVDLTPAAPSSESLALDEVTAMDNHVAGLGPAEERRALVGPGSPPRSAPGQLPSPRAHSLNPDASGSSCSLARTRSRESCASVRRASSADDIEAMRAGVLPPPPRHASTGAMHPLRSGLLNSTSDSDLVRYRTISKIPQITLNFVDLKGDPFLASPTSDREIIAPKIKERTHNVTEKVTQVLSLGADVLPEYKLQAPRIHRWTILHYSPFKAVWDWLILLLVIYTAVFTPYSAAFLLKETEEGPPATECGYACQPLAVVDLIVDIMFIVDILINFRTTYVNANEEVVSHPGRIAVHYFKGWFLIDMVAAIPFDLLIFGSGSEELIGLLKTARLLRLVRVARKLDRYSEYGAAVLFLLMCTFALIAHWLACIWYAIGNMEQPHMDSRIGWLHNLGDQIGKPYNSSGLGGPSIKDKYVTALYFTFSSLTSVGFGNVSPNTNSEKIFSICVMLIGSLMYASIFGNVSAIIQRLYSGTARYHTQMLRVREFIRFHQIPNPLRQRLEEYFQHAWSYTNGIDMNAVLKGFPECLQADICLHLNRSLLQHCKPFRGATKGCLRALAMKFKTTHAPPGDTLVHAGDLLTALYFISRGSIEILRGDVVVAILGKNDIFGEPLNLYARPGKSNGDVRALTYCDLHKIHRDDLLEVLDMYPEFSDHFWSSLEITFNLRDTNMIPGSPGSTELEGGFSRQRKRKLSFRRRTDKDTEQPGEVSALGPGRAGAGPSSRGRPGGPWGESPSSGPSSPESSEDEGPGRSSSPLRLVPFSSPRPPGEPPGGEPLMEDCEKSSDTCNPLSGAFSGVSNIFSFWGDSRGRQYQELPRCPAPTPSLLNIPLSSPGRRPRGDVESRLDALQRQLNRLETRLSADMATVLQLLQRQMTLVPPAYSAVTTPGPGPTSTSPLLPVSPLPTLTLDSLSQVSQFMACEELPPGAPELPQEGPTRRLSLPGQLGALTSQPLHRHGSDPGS
row,SMILES,"hERG current change (%, negative = inhibition) at 1uM [%]"
1,CC(C)(C)c1ccc(OCCSc2nc3ccccc3n2CC(=O)O)cc1,14.3
2,O=C1CC(C(=O)N2CCOCC2)C2(CCCC2)O1 (stereo not drawn),8.55
3,O=C(O)c1cc2n(n1)C(C(F)(F)F)CC(C1CC1)N2 (stereo not drawn),1.99
4,CSc1ccc(Cl)c(C(=O)Nc2ccc(OCC(N)=O)cc2)c1,6.79
5,C=CCN1C(=O)/C(=C2/Sc3ccc(OC)cc3N2CC)SC1=S,18.8
6,Cl.O=C(c1ccccc1)N1CCN(CC(O)COc2cccc3ccccc23)CC1 (stereo not drawn),10.3
7,O=C1NC2(CCCCC2)C(=O)N1CC(=O)N(Cc1ccccc1)c1ccccc1,2.86
8,Cc1c(O)ccc(NS(=O)(=O)c2ccccc2)c1C,13
9,CC(=O)Nc1ccc(SCCN2CC[C@@H](C(C)(C)C)CCC2=O)cc1,12.8
10,Cc1cc(C)c(-c2csc(Cc3nc(-c4cc5ccccc5oc4=O)cs3)n2)cc1C,-0.0926
11,CC1=C(N2CCCCC2)CCC1=O,8.53
12,COC(=O)NNC(=O)C12CC3CC(CC(C3)C1)C2,4.29
13,CCN(CC)S(=O)(=O)c1ccc(/C=C/C(=O)OCC(=O)NCc2ccc3c(c2)OCO3)cc1,10.4
14,CC(Oc1ccccc1)c1ccnc(N)n1 (stereo not drawn),16.6
15,COc1ccc(CNC(=O)C(OC(=O)c2ccco2)c2ccccc2F)cc1 (stereo not drawn),12.8
16,CCc1c(C)sc(NC(=O)c2cc(-c3cc(OC)ccc3OC)on2)c1C#N,2.61
17,C=CCN1c2ccccc2[C@]23C[C@@H](C(=O)OC)N(C(=O)c4ccco4)C2=NC(C(=O)OC)=C(C(=O)OC)[C@H]13,-1.19
18,Cc1onc(-c2ccccc2Cl)c1C(=O)Nc1ncn[nH]1,7.08
19,Cc1[nH]c(=O)[nH]c(=O)c1S(=O)(=O)N1c2ccc(F)cc2CCC1C (stereo not drawn),10.5

row,SMILES,"hERG current change (%, negative = inhibition) at 1uM [%]"
1,Cc1nn(C)c(C)c1CNC(=O)/C=C/c1ccccc1F,12.1
2,CC1=C/C(=N\S(=O)(=O)c2ccccc2)C(C(C)C)=CC1=O,14
3,C/C(=N/NS(=O)(=O)c1ccc(Br)cc1)c1c[nH]c2ccccc12,13.5
4,O=C(NCc1cccs1)C(=O)NCC(c1ccco1)N1CCN(c2ccc(F)cc2)CC1 (stereo not drawn),9.68
5,COc1ccc(NC(=O)CN(C)C(=O)c2ccc3c(c2)OCCO3)cc1,27.2
6,COc1ccc(Nc2nnc(SCC(=O)N3CCCC3)s2)cc1,7.15
7,Cc1ccccc1NC(=O)CSc1nc2c(c(-c3ccco3)c1C#N)CCCC2,-9.46
8,COc1ccc(C)cc1S(=O)(=O)N1CCC(C(=O)N2CCN(C)CC2)CC1,12.4
9,Cc1cccc2c1N(N=O)CCC2,2.91
10,COC(=O)/C(C#N)=C/c1c(N2CCN(Cc3ccc4c(c3)OCO4)CC2)nc2c(C)cccn2c1=O,3.53
11,CCN(CCCl)Cc1ccccc1Br.Cl,16.6
12,O=[N+]([O-])c1ccc(C2CC(c3ccccc3)=Nc3ccccc3S2)cc1 (stereo not drawn),4.39
13,COc1ccc(CNC(=O)c2c(O)c3cccc4c3n(c2=O)CCC4)cc1OC,17.6
14,O=C(OC1CCOC1=O)c1cc(-c2cccs2)nc2ccccc12 (stereo not drawn),12.1
15,CCC(=O)N1c2ccc(S(=O)(=O)CCC(=O)NCc3ccc4c(c3)OCO4)cc2CC1C (stereo not drawn),13.2
16,N#Cc1cccc(NC(=O)CN2NS(=O)(=O)c3ccccc3C2=O)c1,12.2
17,CC1CCc2sc(C(=O)OCC(=O)NCc3ccccc3)cc2C1 (stereo not drawn),19.7
18,Cc1ccccc1-c1nc(CS(=O)(=O)CC(=O)NCCCN2CC(C)CC(C)C2)c(C)o1 (stereo not drawn),-4.36
19,NC(=O)C1CCN(C(=O)COc2ccc3ccccc3c2Br)CC1,-2.9

row,SMILES,"hERG current change (%, negative = inhibition) at 1uM [%]"
1,Cc1cccc(N2CCN(C(=O)C3CCN(S(=O)(=O)c4cccc5nsnc45)CC3)CC2C)c1 (stereo not drawn),12.1
2,CCC(Oc1ccccc1)C(=O)Nc1ncc([N+](=O)[O-])s1 (stereo not drawn),13.3
3,Cc1ccc2cc(CCNC(=O)C(C)C)c(=O)[nH]c2c1,10.6
4,Cc1cccc(NS(=O)(=O)c2cc(Cl)ccc2Cl)n1,20.5
5,COc1ccccc1CNC(=O)CN1C(=O)c2cccc(N)c2C1=O,14.6
6,COC(=O)Cc1c(O)ccn(CCc2c[nH]c3ccc(OC)cc23)c1=O,2.61
7,O=C(c1cccc(S(=O)(=O)N2CCOCC2)c1)N(CCO)Cc1ccccc1,-3.66
8,Cc1ccc(/C=C2\SC(=S)N(CCCC(=O)Nc3ccccn3)C2=O)cc1,3.9
9,CCN(C(=O)C1CCN(c2nc(-c3ccc(OC)cc3)no2)CC1)c1ccc(OC)cc1,0.576
10,COc1ccc(S(=O)(=O)N2CCOCC2)cc1NC(=O)CC1CC2CCC1C2 (stereo not drawn),9.21
11,O=C(O)Cc1nc(-c2cccnc2)sc1-c1ccc(Br)cc1,12.3
12,CC(C)CN1C(=O)c2ccc(C(=O)NCc3ccc4c(c3)OCO4)cc2C1=O,11.9
13,Cc1cc(Nc2ccc(F)c(Cl)c2)n2nc(C)nc2n1,0.637
14,COc1cccc(C2C3=C(CCCC3=O)Nc3nc(-c4cc(OC)c(OC)c(OC)c4)nn32)c1 (stereo not drawn),-1.48
15,O=C(CNC(=O)c1ccc(Cl)cc1Cl)OCc1ccccc1,20.4
16,O=c1[nH]c(=S)[nH]c2sccc12,10
17,COc1ccc(Br)c2oc(SC)cc(=O)c12,8.07
18,Cc1cc(C)c(S(=O)(=O)N2CCCOC2CNC(=O)C(=O)NCc2ccco2)c(C)c1 (stereo not drawn),10.7
19,CN(C)CCCn1c(N)c(C#N)c2nc(C#N)c(C#N)nc21,11.4
